# Data: the supplement of paper PMC8728848
# Some of the results follow.
# How the values were obtained:
# Experiment in all cases: glycan array binding signal (z-score within array); higher = stronger binding
# Settings in all cases: glycan notation: IUPAC condensed, linker removed
# [1] = molecular target: Fuc(a1-2)Gal6S(b1-3)GlcNAc6S
# Outline: (§1)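 Negative Z-scores can be read as non-binding. The Z-score is calculated within each array and then averaged across arrays of one protein sequence at different concentrations or buffers and across linkers. Arrays, 3228 in all, were curated from the Consortium for Functional Glycomics database and kept only where the protein sequence was available.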
# Fuc(a1-2)Gal6S(b1-4)Glc = molecular target: Fuc(a1-2)Gal6S(b1-4)Glc
# Outline: as §1
# [2] = molecular target: Fuc(a1-2)Gal6S(b1-4)Glc6S
# Outline: as §1
# Fuc(a1-2)[Gal(a1-3)]Gal = molecular target: Fuc(a1-2)[Gal(a1-3)]Gal
# Outline: as §1
# [3] = molecular target: Fuc(a1-2)[Gal(a1-3)]Gal(b1-3)GalNAc
# Outline: as §1
# [4] = molecular target: Fuc(a1-2)[Gal(a1-3)]Gal(b1-3)GalNAc(b1-3)Gal(a1-4)Gal(b1-4)Glc
# Outline: as §1
# [5] = molecular target: Fuc(a1-2)[Gal(a1-3)]Gal(b1-3)GlcNAc
# Outline: as §1
# [6] = molecular target: Fuc(a1-2)[Gal(a1-3)]Gal(b1-3)GlcNAc(b1-2)Man(a1-3)[Fuc(a1-2)[Gal(a1-3)]Gal(b1-3)GlcNAc(b1-2)Man(a1-6)]Man(b1-4)GlcNAc(b1-4)GlcNAc
# Outline: as §1
# [7] = molecular target: Fuc(a1-2)[Gal(a1-3)]Gal(b1-3)GlcNAc(b1-2)Man(a1-3)[Fuc(a1-2)[Gal(a1-3)]Gal(b1-3)GlcNAc(b1-2)Man(a1-6)]Man(b1-4)GlcNAc(b1-4)[Fuc(a1-6)]GlcNAc
# Outline: as §1
# [8] = molecular target: Fuc(a1-2)[Gal(a1-3)]Gal(b1-3)GlcNAc(b1-3)GalNAc
# Outline: as §1
# [9] = molecular target: Fuc(a1-2)[Gal(a1-3)]Gal(b1-3)GlcNAc(b1-6)GalNAc
# Outline: as §1
# [10] = molecular target: Fuc(a1-2)[Gal(a1-3)]Gal(b1-4)Glc
# Outline: as §1
# [11] = molecular target: Fuc(a1-2)[Gal(a1-3)]Gal(b1-4)GlcNAc
# Outline: as §1
# [12] = molecular target: Fuc(a1-2)[Gal(a1-3)]Gal(b1-4)GlcNAc(b1-2)Man
# Outline: as §1
# [13] = molecular target: Fuc(a1-2)[Gal(a1-3)]Gal(b1-4)GlcNAc(b1-2)Man(a1-3)[Fuc(a1-2)[Gal(a1-3)]Gal(b1-4)GlcNAc(b1-2)Man(a1-6)]Man(b1-4)GlcNAc(b1-4)GlcNAc
# Outline: as §1
# [14] = molecular target: Fuc(a1-2)[Gal(a1-3)]Gal(b1-4)GlcNAc(b1-2)Man(a1-3)[Fuc(a1-2)[Gal(a1-3)]Gal(b1-4)GlcNAc(b1-2)Man(a1-6)]Man(b1-4)GlcNAc(b1-4)[Fuc(a1-6)]GlcNAc
# Outline: as §1
# [15] = molecular target: Fuc(a1-2)[Gal(a1-3)]Gal(b1-4)GlcNAc(b1-3)GalNAc
# Outline: as §1
# [16] = molecular target: Fuc(a1-2)[Gal(a1-3)]Gal(b1-4)GlcNAc(b1-3)[Fuc(a1-2)[Gal(a1-3)]Gal(b1-4)GlcNAc(b1-6)]GalNAc
# Outline: as §1
# [17] = molecular target: Fuc(a1-2)[Gal(a1-3)]Gal(b1-4)GlcNAc(b1-6)GalNAc
# Outline: as §1
# [18] = molecular target: Fuc(a1-2)[Gal(a1-3)]Gal(b1-4)[Fuc(a1-3)]Glc
# Outline: as §1
# [19] = molecular target: Fuc(a1-2)[Gal(a1-3)]Gal(b1-4)[Fuc(a1-3)]GlcNAc
# Outline: as §1
# [20] = molecular target: Fuc(a1-2)[Gal(a1-3)]Gal(b1-4)[Fuc(a1-3)]GlcNAc(b1-3)GalNAc
# Outline: as §1
# [21] = molecular target: Fuc(a1-2)[Gal(a1-4)]Gal(b1-4)GlcNAc
# Outline: as §1
# [22] = molecular target: Fuc(a1-2)[GalNAc(a1-3)]Gal
# Outline: as §1
# [23] = molecular target: Fuc(a1-2)[GalNAc(a1-3)]Gal(b1-3)GalNAc(a1-3)[Fuc(a1-2)]Gal(b1-4)GlcNAc
# Outline: as §1
# [24] = molecular target: Fuc(a1-2)[GalNAc(a1-3)]Gal(b1-3)GalNAc(b1-3)Gal(a1-4)Gal(b1-4)Glc
# Outline: as §1
# [25] = molecular target: Fuc(a1-2)[GalNAc(a1-3)]Gal(b1-3)GlcNAc
# Outline: as §1
# [26] = molecular target: Fuc(a1-2)[GalNAc(a1-3)]Gal(b1-3)GlcNAc(b1-2)Man(a1-3)[Fuc(a1-2)[GalNAc(a1-3)]Gal(b1-3)GlcNAc(b1-2)Man(a1-6)]Man(b1-4)GlcNAc(b1-4)GlcNAc
# Outline: as §1
# [27] = molecular target: Fuc(a1-2)[GalNAc(a1-3)]Gal(b1-3)GlcNAc(b1-2)Man(a1-3)[Fuc(a1-2)[GalNAc(a1-3)]Gal(b1-3)GlcNAc(b1-2)Man(a1-6)]Man(b1-4)GlcNAc(b1-4)[Fuc(a1-6)]GlcNAc
# Outline: as §1
# [28] = molecular target: Fuc(a1-2)[GalNAc(a1-3)]Gal(b1-3)GlcNAc(b1-3)GalNAc
# Outline: as §1
# [29] = molecular target: Fuc(a1-2)[GalNAc(a1-3)]Gal(b1-3)GlcNAc(b1-6)GalNAc
# Outline: as §1
# [30] = molecular target: Fuc(a1-2)[GalNAc(a1-3)]Gal(b1-4)Glc
# Outline: as §1
# [31] = molecular target: Fuc(a1-2)[GalNAc(a1-3)]Gal(b1-4)GlcNAc
# Outline: as §1
# [32] = molecular target: Fuc(a1-2)[GalNAc(a1-3)]Gal(b1-4)GlcNAc(b1-2)Man
# Outline: as §1
# [33] = molecular target: Fuc(a1-2)[GalNAc(a1-3)]Gal(b1-4)GlcNAc(b1-2)Man(a1-3)[Fuc(a1-2)[GalNAc(a1-3)]Gal(b1-4)GlcNAc(b1-2)Man(a1-6)]Man(b1-4)GlcNAc(b1-4)GlcNAc
# Outline: as §1
# [34] = molecular target: Fuc(a1-2)[GalNAc(a1-3)]Gal(b1-4)GlcNAc(b1-2)Man(a1-3)[Fuc(a1-2)[GalNAc(a1-3)]Gal(b1-4)GlcNAc(b1-2)Man(a1-6)]Man(b1-4)GlcNAc(b1-4)[Fuc(a1-6)]GlcNAc
# Outline: as §1
# [35] = molecular target: Fuc(a1-2)[GalNAc(a1-3)]Gal(b1-4)GlcNAc(b1-3)Gal(b1-4)GlcNAc
# Outline: as §1
# [36] = molecular target: Fuc(a1-2)[GalNAc(a1-3)]Gal(b1-4)GlcNAc(b1-3)Gal(b1-4)GlcNAc(b1-3)Gal(b1-4)GlcNAc
# Outline: as §1
# [37] = molecular target: Fuc(a1-2)[GalNAc(a1-3)]Gal(b1-4)GlcNAc(b1-3)GalNAc
# Outline: as §1
# [38] = molecular target: Fuc(a1-2)[GalNAc(a1-3)]Gal(b1-4)GlcNAc(b1-3)[Fuc(a1-2)[GalNAc(a1-3)]Gal(b1-4)GlcNAc(b1-6)]GalNAc
# Outline: as §1
# [39] = molecular target: Fuc(a1-2)[GalNAc(a1-3)]Gal(b1-4)GlcNAc(b1-6)GalNAc
# Outline: as §1
# [40] = molecular target: Fuc(a1-2)[GalNAc(a1-3)]Gal(b1-4)[Fuc(a1-3)]GlcNAc
# Outline: as §1
# [41] = molecular target: Fuc(a1-2)[GalNAc(a1-3)]Gal(b1-4)[Fuc(a1-3)]GlcNAc(b1-3)GalNAc
# Outline: as §1
# [42] = molecular target: Fuc(a1-2)[GalNAc(a1-4)]Gal(b1-4)GlcNAc
# Outline: as §1
# [43] = molecular target: Fuc(a1-2)[GalNAc(b1-3)]Gal
# Outline: as §1
binder,measurement,setting,value
FimA-N3 (Actinomyces oris) (protein) MHHHHHHSSGVDLGTENLYFQSNAGLQGAQFQLYKAKNAYANTCSNEKEGAPIAINGQTTLTTDAQGAIDIKGLFISDSIDGADRDNQVNAMERCYVLVETKAPAGYVLPAGNGAATPVKVKAGEETTDN,glycan array binding signal (z-score),[1],0.505
same,glycan array binding signal (z-score),Fuc(a1-2)Gal6S(b1-4)Glc,-0.047
same,glycan array binding signal (z-score),[2],0.307
same,glycan array binding signal (z-score),Fuc(a1-2)[Gal(a1-3)]Gal,1.16
same,glycan array binding signal (z-score),[3],-0.19
same,glycan array binding signal (z-score),[4],-0.425
same,glycan array binding signal (z-score),[5],-0.258
same,glycan array binding signal (z-score),[6],-0.378
same,glycan array binding signal (z-score),[7],-0.364
same,glycan array binding signal (z-score),[8],-0.516
same,glycan array binding signal (z-score),[9],0.125
same,glycan array binding signal (z-score),[10],-0.016
same,glycan array binding signal (z-score),[11],-0.557
same,glycan array binding signal (z-score),[12],-0.344
same,glycan array binding signal (z-score),[13],-0.35
same,glycan array binding signal (z-score),[14],-0.169
same,glycan array binding signal (z-score),[15],-0.486
same,glycan array binding signal (z-score),[16],-0.597
same,glycan array binding signal (z-score),[17],-0.294
same,glycan array binding signal (z-score),[18],-0.378
same,glycan array binding signal (z-score),[19],-0.515
same,glycan array binding signal (z-score),[20],0.505
same,glycan array binding signal (z-score),[21],0.009
same,glycan array binding signal (z-score),[22],-0.241
same,glycan array binding signal (z-score),[23],-0.107
same,glycan array binding signal (z-score),[24],-0.661
same,glycan array binding signal (z-score),[25],-0.552
same,glycan array binding signal (z-score),[26],-0.261
same,glycan array binding signal (z-score),[27],-0.333
same,glycan array binding signal (z-score),[28],-0.208
same,glycan array binding signal (z-score),[29],-0.415
same,glycan array binding signal (z-score),[30],-0.493
same,glycan array binding signal (z-score),[31],-0.456
same,glycan array binding signal (z-score),[32],-0.025
same,glycan array binding signal (z-score),[33],-0.372
same,glycan array binding signal (z-score),[34],0.123
same,glycan array binding signal (z-score),[35],-0.117
same,glycan array binding signal (z-score),[36],-0.285
same,glycan array binding signal (z-score),[37],-0.047
same,glycan array binding signal (z-score),[38],-0.424
same,glycan array binding signal (z-score),[39],-0.16
same,glycan array binding signal (z-score),[40],0.984
same,glycan array binding signal (z-score),[41],-0.111
same,glycan array binding signal (z-score),[42],-0.474
same,glycan array binding signal (z-score),[43],-0.341
